Hit rate of the full screen: of about 48,000 compounds, about 120 (0.25%) were called active. Inconclusive results (about 4%) are left out. Calls come from the whole dose curve; as a rule, active = well fitted activation curve with a large enough effect; inconclusive = small, poorly fitted or top-dose-only effect, or another doubt; inactive = no such curve, though single readings can be large or run the other way. This is one part of the list.
Test: Primary qHTS for Identification of Small Molecule Activators of Huntingtin-Antisense Promoter Activity; note: nearly all actives have a fitted effect of over 55% in size
Details: HEK293 HTT-AS promoter firefly luciferase reporter, 24 h; series mostly up to 57.5 µM; activity change, positive = activation: at the top concentration
Method in brief: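 HEK293 cells carrying firefly luciferase reporters were seeded at 2,500 per well in Opti-MEM and cultured for 24 h. They were then treated with compounds at up to 57.5 uM final for 24 h at 37 degrees C before Dual-Glo luminescence readout.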

Activity change, positive = activation, inactive:
Cc1ccc(CNc2nc3ccc(Cl)cc3n3cnnc23)cc1 -3.72%
COc1ccc(S(=O)(=O)c2c(Nc3c(C)cccc3C)sc(C(=O)c3ccc(F)cc3)c2N)cc1 -44.1%
CCc1cccc(C)c1Nc1c(-c2ccc(SC)cc2)nc2sccn12 28.8%
O=C(CC1N=C2c3ccccc3N=C(SCc3ccc(F)cc3)N2C1=O)NC1CCCCC1 (stereo unspecified) -49.9%
Fc1ccc(-c2noc3ncnc(Nc4ccc(F)cc4F)c23)cc1 0%
Cc1cccc(NC(=O)Cn2c(=O)n(Cc3ccccc3)c(=O)c3sc4ccccc4c32)c1 -27.7%
CCOc1ccc(N(C(=O)c2ccc(Cl)cc2)S(=O)(=O)c2ccc3c(c2)n(C)c(=O)n3C)cc1 -14.8%
CCOc1ccc(CCNC(=O)c2cccc(Nc3nc4ccccc4nc3-n3nc(C)cc3C)c2)cc1OCC 12.7%
Cc1ccc(-n2nc3c(N4CCC(C(=O)NC5CCC(C)CC5)CC4)nnc(C)c3c2C)cc1 (stereo unspecified) -12.2%
O=C(CCCCCCC(=O)Nc1ccc([C@H]2O[C@@H](CSc3nc(-c4ccccc4)c(-c4ccccc4)o3)C[C@@H](c3ccc(CO)cc3)O2)cc1)NO -6.29%
CCC(=O)Oc1cc(C(C)(C)C)cc2cc(-c3nc(-c4ccc(OC)cc4OC)no3)c(=O)oc12 -4.6%
CCOc1ccc(N(CC(=O)Nc2cc(OC)cc(OC)c2)S(=O)(=O)c2c(C)[nH]c(=O)[nH]c2=O)cc1 -6.03%
CC1=C(C(N)=O)C(c2cccc(O)c2)n2ncnc2N1 (stereo unspecified) -2.95%
O=C(c1cccs1)c1cn(CCOc2ccc(Cl)cc2)c2ccccc12 -35.3%
COc1ccc(Cl)cc1NC(=O)Cn1c(=O)oc2cc(S(=O)(=O)N3CCCCCC3)ccc21 -21.5%
Cc1ccc2sc(N(Cc3cccnc3)C(=O)Cc3ccccc3)nc2c1C -24.2%
Cc1ccc(C(=O)c2cn(Cc3ccccc3F)c3cc4c(cc3c2=O)OCCO4)cc1 10.5%
C[N+](C)(C)CCOC(=O)CCC(=O)OCC[N+](C)(C)C -1.54%
COc1ccc(OC)c(NC(=O)CSC2=Nc3ccccc3C3=NC(CCC(=O)NCc4ccccc4)C(=O)N23)c1 (stereo unspecified) 6.81%
O=C(COc1ccc(Cl)cc1)N(Cc1ccco1)Cc1ccco1 -34.8%
Cc1c(C(=O)N(C)C)sc2c1c(=O)n(-c1ccc(Cl)c(Cl)c1)c(=O)n2CC(=O)C(C)(C)C 3.11%
COc1ccccc1CNC(=O)CCC(=O)N1CC(C)Sc2ccccc21 (stereo unspecified) -23.9%
Cc1cccc(N2CCN(C(=O)CN3C(=O)COc4ccc(S(=O)(=O)N5CCC(C)CC5)cc43)CC2)c1C -18.4%
O=S(=O)(Nc1cccc(C(F)(F)F)c1)c1ccc(NS(=O)(=O)c2ccc3c(c2)OCCO3)cc1 -39.7%
Cc1ccc(NC(=O)CSc2nc3ccccc3n2CC(=O)N2CCC(C)CC2)cc1C -19.6%
Cc1csc2nc(COC(=O)c3cccc(NC(=O)c4cccc(Cl)c4)c3)cc(=O)n12 -15.7%
CCc1nn(CC(=O)N2CCC(C)CC2)c(=O)c2cc3occc3n12 -2.09%
CCCN(c1ccc(C(C)C)cc1)S(=O)(=O)c1ccc2c(c1)n(C)c(=O)c(=O)n2C -9%
CN(C)C1(CNC(=O)COc2ccc([N+](=O)[O-])cc2)CCCCC1 -12.8%
CCC1CN(C(=O)N2CCC(C(=O)NCCc3cc(OC)ccc3OC)CC2)c2ccccc2O1 (stereo unspecified) -28.3%
CCN(CC)S(=O)(=O)c1ccc2c(c1)N(CC(=O)N1CCN(c3cccc(Cl)c3)CC1)C(=O)CO2 -21.5%
CCn1c(CN2CCOCC2)nc2cc(NC(=O)c3ccccc3[N+](=O)[O-])ccc21 17.9%
CC(C)Oc1ccc(CNC(=O)c2ccc(CS(=O)c3cccc(Cl)c3)o2)cc1 (stereo unspecified) -27.9%
COc1ccccc1N1CCN(C(=O)Cn2ncc3ccsc3c2=O)CC1 -4.91%
COc1cccc(-n2cc(C(=O)Nc3cccc(C(F)(F)F)c3)c3ccccc3c2=O)c1 -29.1%
Cc1ccc(NC(=O)N2CCc3cc(S(=O)(=O)N4CCC(C)CC4)ccc32)cc1 -12.4%
CCN(C(=O)Cn1c(=O)n(CCCS(=O)(=O)C2CCCCC2)c(=O)c2ccccc21)c1cccc(C)c1 -11.4%
Cc1ccc(Cl)cc1Nc1nn2c(=O)c3ccc(C(=O)Nc4ccc(F)cc4)cc3nc2s1 -0.409%
Cc1cc(Cl)ccc1NC(=O)Cn1nc(C)c2c(C)n(-c3ccccc3)nc2c1=O -23.5%
COc1cccc(C2c3c(oc4cc(C)cc(C)c4c3=O)C(=O)N2CCc2ccc(OC)c(OC)c2)c1 (stereo unspecified) -3.76%
COc1ccc(NC(=O)CCS(=O)(=O)c2nc(-c3cccs3)cc(C(F)(F)F)n2)cc1 -56.1%
CCn1c(SCc2ccccc2C)nc(=O)c2c(C(=O)OC)cc(C3CC3)nc21 -36.9%
COc1ccccc1CNC(=O)CCC1N=C2c3ccccc3N=C(SCC(=O)Nc3ccc(F)cc3)N2C1=O (stereo unspecified) 4.72%
Cc1ccc2c(c1)c1c(c(=O)n(-c3cccc(Cl)c3)c(=O)n1CC(=O)NCCC1=CCCCC1)n2C -11.4%
CN(CC(=O)NCc1ccc(Cl)cc1)S(=O)(=O)c1ccc2[nH]c3c(c2c1)CCCC3 -27.6%
COc1ccc(CNc2nc(-c3ccccc3)nn2S(=O)(=O)c2ccccc2)cc1 25.2%
O=C(Nc1nnc(-c2cc(Cl)ccc2Cl)o1)c1ccc2c(c1)OCCO2 -0.409%
CCOC(=O)C1CCC(CN(Cc2ccc(OC)cc2)S(=O)(=O)c2ccc(F)c(C(=O)Nc3ccc(C)c(C)c3)c2)CC1 (stereo unspecified) -7.12%
COc1ccc(-n2c(Cc3ccccc3)nnc2SCc2nc(-c3cccs3)no2)cc1 -24.4%
O=c1cc(CSc2ncn[nH]2)[nH]c2ccc(F)cc12 2.16%
CCN(c1ccccc1)S(=O)(=O)c1cc(Br)cc2c1N(C(=O)C1CC1)CC2 -36.6%
Cc1ccc(C(=O)N2CCc3cc(CNC(=O)CSc4ccccc4)ccc32)cc1 -24.8%
Cc1ccc(-c2cc(C(=O)NCc3cnn(C)c3C)c3ccccc3n2)cc1C 22.7%
Cc1cccc(-c2c3c(=O)n(C)c(=O)n(C)c3c3c(C)nc4ccccc4n23)c1 -2.81% [at 11.5 µM, percent change from vehicle, -100% = no light]
N#Cc1ccc(S(=O)(=O)N2CCC(Oc3cccc(C(F)(F)F)c3)CC2)cc1 -37.7%
CCCNC(=O)C1=CC(c2ccc3c(c2)OCO3)=NS(=O)(=O)N1C -16.4%
